Assay results as given in the supplement of paper PMC4967469.
pIC50: −log10 of the molar value. A lower IC50 marks a more sensitive line; a fit beyond the top or the lowest dose is shown as a bound at that dose. AUC, from the same fit, is the share of area under the viability curve across the 256-fold dose range; the more sensitive the line, the further below 1. For part of these data: An inferred top dose was calculated from the reported fits. For part of these data: Where an entry number is given, a second screen of the drug exists; the two often differ.

What was measured:
Experiment in all cases: Viability of human cancer cell lines after 72 h of drug (GDSC screen)
OSI-906 = compound: C[C@]1(O)C[C@@H](c2nc(-c3ccc4ccc(-c5ccccc5)nc4c3)c3c(N)nccn32)C1 [OSI-906]; conditions: top dose 2.56 µM; top dose inferred
Procedure: (§1)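 Human cancer cell lines in 384-well plates, medium with 10% serum, drug for 72 h over a 256-fold dose range (nine 2-fold or five 4-fold steps up to the top dose). Adherent lines were fixed and stained with the nucleic acid dye Syto60, suspension lines read with resazurin; signal relative to control wells, capped at 0 and 100%. One two-parameter sigmoid per drug and line, fitted in a mixed model over all curves with the slope shared within a line.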

NSC-207895 = compound: CN1CCN(c2ccc([N+](=O)[O-])c3no[n+]([O-])c23)CC1 [NSC-207895]; conditions: top dose 20 µM; top dose inferred
Procedure: as §1

Belinostat = compound: O=C(/C=C/c1cccc(S(=O)(=O)Nc2ccccc2)c1)NO [Belinostat]; conditions: top dose 20 µM; top dose inferred
Procedure: as §1

YM155 = compound: COCC[n+]1c2c(n(Cc3cnccn3)c1C)C(=O)c1ccccc1C2=O [YM155]; conditions: top dose 5.12 µM
Procedure: as §1

CGP-60474 = compound: OCCCNc1cc(-c2ccnc(Nc3cccc(Cl)c3)n2)ccn1 [CGP-60474]; conditions: top dose 0.256 µM; top dose inferred
Procedure: as §1

FTI-277 = compound: COC(=O)[C@H](CCSC)NC(=O)c1ccc(NC[C@@H](N)CS)cc1-c1ccccc1 [FTI-277]; conditions: top dose 1.024 µM; top dose inferred
Procedure: as §1

AMG-706 = compound: CC1(C)CNc2cc(NC(=O)c3cccnc3NCc3ccncc3)ccc21 [AMG-706]; conditions: top dose 2 µM; top dose inferred
Procedure: as §1

JQ1 = compound: Cc1sc2c(c1C)C(c1ccc(Cl)cc1)=N[C@@H](CC(=O)OC(C)(C)C)c1nnc(C)n1-2 [JQ1]
Procedure: as §1

SB-715992 = compound: Cc1ccc(C(=O)N(CCCN)[C@@H](c2nc3cc(Cl)ccc3c(=O)n2Cc2ccccc2)C(C)C)cc1 [SB-715992]; conditions: top dose 0.128 µM; top dose inferred
Procedure: as §1

JNJ-26854165 = compound: c1ccc2c(CCNc3ccc(Nc4ccncc4)cc3)c[nH]c2c1 [JNJ-26854165]; conditions: top dose 10 µM
Procedure: as §1

JNK Inhibitor VIII = compound: CCOc1nc(NC(=O)Cc2cc(OC)ccc2OC)cc(N)c1C#N [JNK Inhibitor VIII]; conditions: top dose 10 µM; top dose inferred
Procedure: as §1

Docetaxel = compound: CC(=O)O[C@@]12CO[C@@H]1C[C@H](O)[C@@]1(C)C(=O)[C@H](O)C3=C(C)[C@@H](OC(=O)[C@H](O)[C@@H](NC(=O)OC(C)(C)C)c4ccccc4)C[C@@](O)([C@@H](OC(=O)c4ccccc4)[C@H]21)C3(C)C [Docetaxel]; conditions: top dose 0.0125 µM
Procedure: as §1

[1] = top dose 1 µM, screen: GDSC drug entry 1218, top dose inferred
[2] = top dose 2.56 µM, screen: GDSC drug entry 163

Cell Line	AUC (OSI-906)	pIC50 (OSI-906)	AUC (NSC-207895)	pIC50 (NSC-207895)	AUC (Belinostat)	pIC50 (Belinostat)	AUC (YM155)	pIC50 (YM155)	AUC (CGP-60474)	pIC50 (CGP-60474)	AUC (FTI-277)	pIC50 (FTI-277)	AUC (AMG-706)	pIC50 (AMG-706)	AUC (JQ1; [1])	pIC50 (JQ1; [1])	AUC (JQ1; [2])	pIC50 (JQ1; [2])	AUC (SB-715992)	pIC50 (SB-715992)	AUC (JNJ-26854165)	pIC50 (JNJ-26854165)	AUC (JNK Inhibitor VIII)	pIC50 (JNK Inhibitor VIII)	AUC (Docetaxel)	pIC50 (Docetaxel)
HOP-62 (lung adenocarcinoma, adherent)	0.956	< 5.59	0.944	< 4.70	0.376	6.24	0.055	> 7.70	0.623	7.46	0.895	< 5.99	0.981	< 5.70	0.985	< 6.00	0.475	6.86	0.766	7.33	0.858	5.09	0.971	< 5.00	–	–
JSC-1 (B-cell lymphoma, suspension)	0.987	< 5.59	0.82	4.94	0.173	6.89	0.025	> 7.70	0.615	7.48	0.987	< 5.99	0.987	< 5.70	–	–	0.613	6.49	0.837	7.07	0.727	5.56	0.987	< 5.00	0.917	< 7.90
K-562 (chronic myeloid leukaemia, suspension)	–	–	0.9	< 4.70	–	–	0.037	> 7.70	0.855	6.71	0.988	< 5.99	–	–	–	–	–	–	–	–	–	–	–	–	–	–
KOPN-8 (B-cell leukaemia, suspension)	0.944	< 5.59	0.902	4.71	0.135	6.94	0.017	> 7.70	0.702	7.27	0.99	< 5.99	0.981	< 5.70	0.987	< 6.00	0.814	5.94	0.628	7.77	–	–	0.99	< 5.00	0.795	8.31
TGBC11TKB (stomach, adherent)	0.98	< 5.59	0.992	< 4.70	0.47	5.98	0.633	6.15	–	–	0.99	< 5.99	0.99	< 5.70	0.974	< 6.00	0.953	< 5.59	0.982	< 6.89	0.97	< 5.00	0.989	< 5.00	0.876	8.00
TMK-1 (stomach, adherent)	0.867	5.59	0.982	< 4.70	0.802	4.97	0.244	7.26	–	–	0.964	< 5.99	0.971	< 5.70	0.984	< 6.00	0.804	5.86	0.93	< 6.89	0.852	5.07	0.986	< 5.00	0.949	< 7.90
TOV-21G (ovary, adherent)	0.985	< 5.59	0.968	< 4.70	0.683	5.37	0.048	> 7.70	–	–	0.981	< 5.99	0.979	< 5.70	0.983	< 6.00	0.978	< 5.59	0.578	7.88	0.899	< 5.00	0.955	< 5.00	0.585	8.86
TOV-112D (ovary, adherent)	0.941	< 5.59	0.913	< 4.70	0.364	6.28	0.034	> 7.70	–	–	0.943	< 5.99	0.984	< 5.70	0.934	< 6.00	0.547	6.67	0.361	8.48	0.857	5.08	0.974	< 5.00	0.684	8.59
TT2609-C02 (thyroid, adherent)	0.855	5.65	0.719	5.26	0.37	6.27	0.029	> 7.70	–	–	0.97	< 5.99	0.959	< 5.70	0.985	< 6.00	0.568	6.60	0.776	7.26	0.835	5.14	0.976	< 5.00	0.682	8.58
TT (thyroid, adherent)	0.981	< 5.59	0.979	< 4.70	0.958	< 4.70	0.172	7.69	–	–	0.957	< 5.99	0.894	< 5.70	0.98	< 6.00	–	–	0.983	< 6.89	0.84	< 5.00	0.974	< 5.00	0.941	< 7.90
TYK-nu (ovary, adherent)	0.98	< 5.59	0.952	< 4.70	0.398	6.19	0.045	> 7.70	–	–	0.985	< 5.99	0.975	< 5.70	0.971	< 6.00	0.85	5.67	0.969	< 6.89	0.808	5.25	0.963	< 5.00	0.709	8.49
